Here are results for one compound from PubChem BioAssay (NCI).

The test relates to NCI-H322M lung. Kind of test: DTP human tumour cell line panel, 48 h.

Each structure is given as a SMILES string.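 Assay format: 96-well plates, 48-hour exposure. Abbreviation: GI50, concentration required for 50% inhibition of growth. TGI: concentration producing complete growth inhibition.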

What is called GI50 is the concentration that inhibits growth by half. In general, TGI refers to the concentration at which net growth stops. A higher TGI goes with lower sensitivity of the cells. For the compound `CC1(C)CC[C@]23CC[C@]4(C)[C@H](CC[C@@H]5[C@@]6(C)CCCN(CO)C(C)(C)[C@@H]6CC[C@]54C)[C@H]2[C@H]1OC3`, the GI50 was 2.62 µM and the TGI was determined as 8.05 µM.
